# Hit rate of the full screen: of about 46,000 compounds, about 60 (0.1%) were called active. Another 3% or so got no clear call; they are omitted. The call rests on the fitted dose curve; in most records, active means well fitted inhibition curve with a large enough effect; inconclusive means small, poorly fitted or top-dose-only effect; inactive means no such curve, though single readings can be large or run the other way. The list shows a part of the results.
# Assay: Primary qHTS assay for Inhibitors of ovarian cancer metastasis using an organotypic tumor microenvironment (TME) model. Further: nearly all actives have a fitted effect of over 65% in size.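 On activity change, negative = inhibition: plate controls were DMSO wells for no effect and tomatine positive control wells for full effect.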
# Conditions: SKOV3ip1-GFP adhesion/invasion on 3D omental model, fluorescence; series mostly up to 45.8 µM; activity change, negative = inhibition: at the top concentration
# In short: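 A 3D layer of primary human omental fibroblasts, mesothelial cells, fibronectin and collagen I, grown 48 hr, received SKOV3ip1-GFP cells in serum-free medium plus compounds at 0.36-46 umol/L. After 2 hr RT and 16 hr 37 C, fixed adherent GFP cells were counted; normalized to DMSO and tomatine.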
Structure (SMILES),"activity change, negative = inhibition",outcome
CCOCCc1nn2c(=O)cc(COC(=O)c3ccccc3NC(=O)c3ccc(C)cc3)nc2s1,inactive: -3.45%,
CCn1cc2nc(SCC(=O)Nc3ccc(OC)cc3OC)n(Cc3ccc(Cl)cc3)c(=O)c2n1,inactive: 8.48%,
CCCCN(C)c1nnc(NC(=O)Nc2ccc(Br)c(C)c2)s1,inactive: 2.21%,
Nc1cc(C(Cl)=C(Cl)Cl)c(S(N)(=O)=O)cc1S(N)(=O)=O,inactive: -6.5%,
Fc1ccccc1N1CCN(c2ncnc3c2nc2n3CCCC2)CC1,inactive: 0.511%,
COc1ccc(CCNC(=O)CCCCn2c(=O)c3ccccc3n(Cc3ccccc3)c2=O)cc1OC,,inactive
Cc1ccc(F)cc1S(=O)(=O)N1CCC(c2nc3ccccc3s2)CC1,inactive: 16.9%,
CCCn1c(=O)c2sccc2n2c(CCCC(=O)NC3CCCCC3)nnc12,inactive: -17%,
O=C(CNS(=O)(=O)c1cccs1)N1CCN(c2ccccc2F)CC1,inactive: 29.2%,
Cc1ccc2nc3c(c(Nc4ccc(C)c(C)c4)c2c1)CCC3,inactive: -14.1%,
Brc1cccc(-c2nnn3c2nc(N2CCCCC2)c2ccccc23)c1,inactive: 9.35%,
CCn1c2c(c(=O)n3ncc(C(=O)Nc4ccc(Cl)cc4C)c13)CN(Cc1ccc(OC)cc1)CC2,inactive: 5.66%,
Cc1ccccc1Nc1c(-c2c[nH]c3ccccc23)nc2cccc(C)n12,inactive: -7.35%,
COc1ccc(C2C=C(c3ccc(Cl)cc3)Nc3nc(NC(=O)CCC(=O)O)nn32)cc1 (configuration not stated),inactive: -2.58%,
Cc1ccccc1Cn1c(C)c(CNCCCc2ccccc2)c(C(=O)O)c1C,inactive: 0.925%,
O=C(Nc1ccc(F)cc1Cl)c1cnc(N2CCOCC2)c2ccccc12,inactive: -9.94%,
CCCOc1cccc(C(=O)N2CCCCC2CCN2CCCCC2)c1 (configuration not stated),inactive: 4.47%,
CCC(C)NC(=O)Cn1c(=O)c2cccn2c2ccc(F)cc21 (configuration not stated),,inactive
Cc1ccc(N(Cc2cccs2)C(=O)c2ccccc2[N+](=O)[O-])cc1,inactive: -12.7%,
COc1ccc(-c2csc3nc(-c4ccc(C)cc4)oc(=O)c23)cc1OC,inactive: -1.69%,
O=c1c2sc3ccccc3c2n(Cc2ccc(Cl)cc2)c(=O)n1Cc1ccco1,inactive: 11%,

Structure (SMILES),"activity change, negative = inhibition",outcome
COc1ccc(CNC(=O)CC2Oc3ccc(C)cc3NC2=O)cc1 (configuration not stated),inactive: -2.67%,
Cc1ccccc1NC(=O)CCn1nc(-c2ccc(Cl)cc2)c2ccccc2c1=O,inactive: -19%,
COc1cccc(CNC(=O)c2cc(=O)[nH]c3ccc(S(=O)(=O)N4CCCC4)cc23)c1,,inactive
Cc1cccc(Cn2c(CN3CCCC(C)C3)nc3c2c(=O)n(C)c(=O)n3C)c1 (configuration not stated),inactive: 0.746%,
COc1ccc(CCNc2nc(SCc3cccc(Cl)c3)nc3ccccc23)cc1OC,inactive: -2.4%,
CCOc1ccc(CCNC(=O)c2nn(C)c3c2CSc2ccc(C)cc2-3)cc1OCC,inactive: 5.97%,
COC(=O)c1cc2oc3ccccc3c2n1CC(=O)Nc1ccc(F)c(Cl)c1,inactive: -9.09%,
COc1cccc(CC(=O)Nc2ccc3nc(Nc4cccc(C(F)(F)F)c4)cc(C)c3c2)c1,inactive: -2.12%,
Cc1ccc(S(=O)(=O)N2CCc3cc(C(=O)Nc4c(C)cccc4C(C)C)ccc32)cc1,inactive: 10.4%,
CCOC(=O)c1c(NC(=O)CSc2cn(CCNC(=O)c3ccc(OCC)cc3)c3ccccc23)sc2c1CCC2,,inactive
Cc1ccc(Cl)cc1NC(=O)Cn1c(SCC(=O)NCc2ccccc2)nc2ccccc21,inactive: 0.146%,
CCc1nonc1NC(=O)c1oc2ccc(Cl)cc2c1C,inactive: -10.7%,
CCOC(=O)c1cc(OC(=O)c2cc(OC)cc(OC)c2)n(-c2ccccc2)n1,inactive: -3.06%,
Clc1ccc2nc(-c3cccs3)c(Nc3ccc4c(c3)OCCO4)n2c1,inactive: 5.63%,
COCCCNC(=O)c1ccc(-n2c(-c3ccccc3)cc3c2CCCCC3)cc1,inactive: -28.7%,
O=C(NCc1ccccc1)c1nc(-c2ccc(Cl)cc2)n2c1CCCCC2,inactive: 3.29%,
CC1=C(C(=O)OC2CCCCCC2)C(c2ccc(Cl)cc2Cl)CC(=O)N1 (configuration not stated),,inactive
CC1Cc2cc(S(=O)(=O)NCc3ccccc3)ccc2N1C(=O)C1CCC1 (configuration not stated),inactive: -18.7%,
Cc1ccc(NC(=O)C2CCCN(S(=O)(=O)c3ccc4c(c3)CCCC(=O)N4)C2)cc1N(C)C (configuration not stated),,inactive
O=C(Cn1c(-c2cccs2)cc2cc(Cl)ccc21)N1CCCCC1,inactive: 9%,
Cc1ccc(C)c(NC(=O)Cn2c(=O)n(CCCS(=O)(=O)C3CCCCC3)c(=O)c3ccccc32)c1,,inactive

Structure (SMILES),"activity change, negative = inhibition",outcome
CN1CCN(c2c(F)cc3c(=O)c(C(=O)O)cn(CCF)c3c2F)CC1,inactive: -13.7%,
COc1ccc(Cl)cc1C(=O)NCC(c1ccc(N(C)C)cc1)N1CCCC1 (configuration not stated),,inactive
Cc1ccc(-c2ccc(CCC(=O)O)n2-c2ccc(C)c(Cl)c2)cc1,,inactive
Cc1ccc2c(c1)c1c(c(=O)n(-c3ccccc3)c(=O)n1CC(=O)c1ccc(Cl)cc1)n2C,inactive: -6.58%,
Cc1ccc2nc(/C(C#N)=C/c3ccc(-c4ccc(C(=O)OC(C)C)cc4)o3)[nH]c2c1,inactive: -20.1%,
Cn1c(=O)n(C)c2cc(N3CCOCC3)c(NS(=O)(=O)c3ccc(F)cc3)cc21,inactive: 6.16%,
O=C1CN(C(=O)c2c(F)cccc2Cl)C(c2ccc(F)cc2)c2cc(Br)ccc2N1 (configuration not stated),inactive: -2.69%,
Fc1ccc(-c2nnn3c2nc(NCc2ccccc2)c2ccccc23)cc1,inactive: -14.9%,
CCOc1cc(C(=O)Nc2ccc(-c3nnc4n3CCCCC4)cc2)cc(OCC)c1OCC,,inactive
Cc1ccc(CN2C(=O)CN(C3CCCCCC3)C(=O)C2c2ccc(F)cc2)cc1 (configuration not stated),inactive: -0.0092%,
COC(=O)c1cccc(CN2C(=O)SC(Nc3ccccc3C)C2=O)c1 (configuration not stated),inactive: -5.3%,
COc1ccc(-n2c(=O)c3c4c(sc3n(CC(=O)C(C)(C)C)c2=O)CCCC4)c(OC)c1,,inactive
CCc1ccc(CNC(=O)C2CCN(C(=O)c3ccc(-n4c(C)cc5ccccc54)s3)CC2)cc1,,inactive
CCOc1ccc(NC(=O)CSc2nccn2C2CCCC2)cc1,inactive: -3.92%,
CN(C(=O)CSc1nc2ccc(NC(=O)c3cccs3)cc2s1)c1ccccc1,inactive: 3.5%,
CCc1ccc(CNC(=O)c2cc3cc4ccc(OC)cc4nc3o2)cc1,,inactive
O=C(Cn1nnc(-c2cccc(C(F)(F)F)c2)n1)NCc1ccc(F)cc1,inactive: -19.8%,
Cc1ccc(OCc2cc(=O)n3c(-c4ccccc4)csc3n2)cc1,,inactive
COc1ccc(C(=O)Nc2nc(-c3nnn(-c4cc(OC)ccc4OC)c3C)ns2)cc1,inactive: -18.3%,
CCN(CC)S(=O)(=O)c1ccc2c(c1)c(=O)c(C(=O)N1CCN(c3ccccc3OC)CC1)cn2C,,inactive
